84 variants from a collection of fitness landscapes (doi:10.1126/science.1257360) can be followed below.

The list shows a part of the results. Some results are limits rather than exact numbers.

The chains are these.
B1: PhoQ; a variant is named by its letters at X, in order, P23837 (parent)
chain: MKKLLRLFFPLSLRVRFLLATAAVVLVLSLAYGMVALIGYSVSFDKTTFRLLRGESNLFYTLAKWENNKLHVELPENIDKQSPTMTLIYDENGQLLWAQRDVPWLMKMIQPDWLKSNGFHEIEADVNDTSLLLSGDHSIQQQLQEVREDDDDAEMTHSVAVNVYPATSRMPKLTIVVVDTIPVELKSSYMVWSWFIYVLSANLLLVIPLLWVAAWWSLRPIEALAKEVRELEEHNRELLNPATTRELTSLVRNLNRLLKSERERYDKYRTTLTDLTHSLKTPLXXLQXXLRSLRSEKMSVSDAEPVMLEQISRISQQIGYYLHRASMRGGTLLSRELHPVAPLLDNLTSALNKVYQRKGVNISLDISPEISFVGEQNDFVEVMGNVLDNACKYCLEFVEISARQTDEHLYIVVEDDGPGIPLSKREVIFDRGQRVDTLRPGQGVGLAVAREITEQYEGKIVAGESMLGGARMEVIFGRQHSAPKDE

In the assay the parent is B1. As to the kind of experiment: enrichment ratio after two sorts for PhoP signalling (ratio (wild type AVST 3.29)); higher = more functional. The conditions noted are these: with PhoP (E. coli).
On to TRRM, for which the enrichment ratio was at most 0.25.
For WKKI the value was at most 0.25.
For MIEY the value was at most 0.25.
Take GWYF: the enrichment ratio was at most 0.25.
Under NCST stands 1.6.
Turning to PNTQ, the enrichment ratio was at most 0.25.
For SWID the value was at most 0.25; for ICGH, at most 0.25.
Under NQSS stands at most 0.25; under LEQQ, at most 0.25; under YNPW, at most 0.25.
Under TIAF stands 0.285; under WEST, at most 0.25.
As to YNRW, the enrichment ratio is at most 0.25.
For the variant NCFP, the enrichment ratio was at most 0.25.
Under PNRE stands at most 0.25; under DPLL, at most 0.25.
Regarding DHSY, the enrichment ratio was at most 0.25.
Under MEHD stands at most 0.25; under WCGY, at most 0.25.
With KKPP, the enrichment ratio is at most 0.25.
Regarding FMRS, the enrichment ratio was at most 0.25.
Under YREG stands at most 0.25.
For WYLL the value was at most 0.25.
Under VMYE stands at most 0.25.
In the case of IFIS, the enrichment ratio was at most 0.25.
For AFWG the value was at most 0.25; for WMKV, at most 0.25.
As to VWIR, the enrichment ratio is at most 0.25.
Turning to ISQG, the enrichment ratio was at most 0.25.
For NQNQ the value was at most 0.25.
For YYCV the value was at most 0.25; for EIKY, at most 0.25; for TDCV, 7.34.
For FFID the value was at most 0.25; for KAWF, at most 0.25; for NFGN, at most 0.25.
For NQDD, the enrichment ratio is at most 0.25.
On to LHKY, for which the enrichment ratio is at most 0.25.
For GAIV, the enrichment ratio is at most 0.25.
For TTNN the value was 17.8; for SPMQ, at most 0.25; for TLAA, 3.45.
For VAAW the value was at most 0.25; for WSCS, at most 0.25.
For GCRW the value was at most 0.25.
With WRIG, the enrichment ratio was at most 0.25.
Under QPHA stands at most 0.25; under YCRI, at most 0.25.
Consider TYKL, for which the enrichment ratio was at most 0.25.
As to GIIM, the enrichment ratio turned out to be 1.99.
Consider RVFK, for which the enrichment ratio is at most 0.25.
For FPCW the value was at most 0.25; for LDPT, at most 0.25.
For FQSY the value was at most 0.25; for SVPP, at most 0.25; for WYWN, at most 0.25.
For AQEW the value was at most 0.25; for AWFL, at most 0.25; for HMKW, at most 0.25.
For the variant LPQS, the enrichment ratio was at most 0.25.
On to DWRT, for which the enrichment ratio was at most 0.25.
Under YMWI stands at most 0.25; under YLIC, at most 0.25; under AFVW, at most 0.25.
Under VNPQ stands at most 0.25; under KKIH, at most 0.25.
For YNYM the value was at most 0.25; for SMSH, 9.89.
Take ANPE: the enrichment ratio was at most 0.25.
Take ECFY: the enrichment ratio is at most 0.25.
As for TVHR, the enrichment ratio was at most 0.25.
Consider SCEF, for which the enrichment ratio is at most 0.25.
As for KLPE, the enrichment ratio was at most 0.25.
For RKNI, the enrichment ratio was at most 0.25.
Take TNIF: the enrichment ratio was at most 0.25.
Under KHIL stands at most 0.25; under IMMW, at most 0.25; under NLVF, at most 0.25.
For YFCE the value was at most 0.25; for FNTH, at most 0.25; for LPHL, at most 0.25.
For DWAV the value was at most 0.25.
GSYG: the enrichment ratio was at most 0.25.
